The other results are listed elsewhere or left out. Measured with an extract: partners may take part in the binding.

The assay addresses T1, FLI1 (endogenous, THP-1 nuclear extract) (UniProt Q01543).
T1 sequence: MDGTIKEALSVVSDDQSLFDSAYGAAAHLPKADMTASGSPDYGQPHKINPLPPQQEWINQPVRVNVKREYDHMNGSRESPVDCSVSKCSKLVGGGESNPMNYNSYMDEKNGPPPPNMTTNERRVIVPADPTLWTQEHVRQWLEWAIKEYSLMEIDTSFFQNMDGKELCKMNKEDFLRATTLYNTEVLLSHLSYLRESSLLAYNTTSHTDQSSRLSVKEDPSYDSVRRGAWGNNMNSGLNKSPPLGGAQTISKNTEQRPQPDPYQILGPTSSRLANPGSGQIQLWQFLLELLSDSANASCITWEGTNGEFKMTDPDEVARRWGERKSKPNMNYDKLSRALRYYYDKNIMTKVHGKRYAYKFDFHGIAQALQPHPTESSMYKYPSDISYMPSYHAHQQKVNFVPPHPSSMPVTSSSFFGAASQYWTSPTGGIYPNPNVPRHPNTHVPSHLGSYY
In words: nuclear extract protein-binding microarray (nextPBM). The following applies: 20 mM HEPES pH 7.9, 100 mM NaCl, 1 mM DTT, 0.2 mg/mL BSA, 0.02% Triton X-100, 2% milk, 0.4 mg/mL salmon testes DNA; 1 h; temperature not stated; high values mean tight binding; double strand, one strand shown; sequences stand for … in GCCTAGCAC…GTGCTAGGTCTTGATTCGCTTGACGCTGCTG
On to AAATAAAGGAAGTGTGCTGC, for which the binding signal is 2.38 z-score.

For CTAAGAAGGAAGTGCTGACA, the binding signal came to 1.89 z-score.

AAAAAGAGGAACTGAATGTC returned a binding signal of 2.9 z-score.

Sequence AAAAACAGGAAGTCCCATAG registered a binding signal of 4.69 z-score.

In the case of CGAAAGGGAAAGTGCTAAAC, the binding signal is 0.556 z-score.

TGTAAAAGGAAGTCAGCTGA displayed a binding signal of 2.4 z-score.

Regarding CAAATGAGGAAATGGAACAG, the binding signal was 2.09 z-score.

In the case of GGAAACAGGAAGTCCCATAG, the binding signal is 5 z-score.

Regarding TGAAAGAGGAATTGCAACCA, the binding signal was 0.961 z-score.

Consider CTCATGGGGAAGTGAGCTCT, for which the binding signal was found to be 1.64 z-score.

For the sequence AAAGGGAGGAAGTGGTTGAA, the binding signal was determined as 3.05 z-score.

AAAAAGAGGAAGTAGAGAAC: the binding signal was found to be 4.55 z-score.

Consider AGGAAGGGGAAGTGCCGGGC, for which the binding signal worked out at 2.8 z-score.

With GCAGAGGGGAAGTGACATCT, the binding signal stood at 2.18 z-score.

Sequence CAAGTGAGGAACTGATGCGG gave a binding signal of 0.54 z-score.

Consider TGAATGAGGAAGTCTTACTA, for which the binding signal turned out to be 2.57 z-score.

With ACAAAGAGGAAGTCCCCAAA, the binding signal amounted to 3.12 z-score.

Take GGAAGGGGGAAGTGGGCCAG: the binding signal amounted to 2 z-score.

The sequence GGGAGGAGGAAGTGCTCTTG displayed a binding signal of 2.87 z-score.

GAAAAGAGGAAGAGTCTTAG came in with a binding signal of 2.18 z-score.

Take AGAATGAGGAAGTCATCACA: the binding signal amounted to 3.79 z-score.

Regarding CAAAAGAGGAACTGGATGGT, the binding signal was found to be 3.1 z-score.

For CAAGGAGGGAAGTGGGAATG, the binding signal was 1.35 z-score.

Regarding AAAATGGGGAAGTCTAAAAT, the binding signal stood at 2.34 z-score.

Consider TTAAAGGGGAAGTGTCATGT, for which the binding signal worked out at 2.58 z-score.

GAAAACGGGAAGTCCCATAG: the binding signal stood at 3.56 z-score.

As to CTGGAGAGGAACTGAGTGCC, the binding signal was 0.359 z-score.

TGATAGAGGAAGTAGTAGCT: the binding signal was 2.72 z-score.

The sequence AGAATGAGGAAATGACAGTC gave a binding signal of 2.2 z-score.

As to TGAACAAGGAAGTGAGGCAT, the binding signal worked out at 1.94 z-score.

The sequence TGAAAAAGGAAGTGCAACCA showed a binding signal of 2.5 z-score.

Turning to CGAAAGGAGAAGTGCTAAAC, the binding signal amounted to 0.966 z-score.

Turning to CCTGGGAGGAAGTGGGTGCC, the binding signal was determined as 2.62 z-score.

In turn, CACATGAGGAACTGATGCGG returned a binding signal of 0.808 z-score.

In turn, TAGAAGAGGAAGTGAGAGAC gave a binding signal of 3 z-score.

For AAAAAAGGGAACTGGCTAGA, the binding signal is 1.56 z-score.

The sequence ATATTAAGGAAGTGCTGTGG gave a binding signal of 2.2 z-score.

Sequence CCTGTGAGGAAGTGGGGCAG yielded a binding signal of 1.82 z-score.

In the case of AGAAGAAGGAAGTGAGAAAG, the binding signal came to 2.28 z-score.

TAAAAGAGGAAGTGACCTCA registered a binding signal of 4.21 z-score.
